Assay results published in the supplement of paper PMC7826260.
The other results are listed elsewhere or left out. Viral Rep nickase domains cut single-stranded DNA in vitro at 3 µM enzyme and 37 °C for 1 h; the strands have 90 letters, of which the middle is given. A value is the log2 ratio of uncut reads to the pool without enzyme; the lower, the more was cut; hits are not called. Reads are scaled to the total; values above 0 arise when much of the pool is cut.

These sequences were tested on T1, Rep nickase domain of Muscovy duck circovirus (assay: uncleaved DNA left, log2 of reads against the no-enzyme library (log2 ratio); higher = less cleavage (more negative = more Rep cleavage of the k-mer); sequences stand for … in CTCGTCCG…ACCGGAGA).
T1 sequence (Rep 1-111, printed without the tag): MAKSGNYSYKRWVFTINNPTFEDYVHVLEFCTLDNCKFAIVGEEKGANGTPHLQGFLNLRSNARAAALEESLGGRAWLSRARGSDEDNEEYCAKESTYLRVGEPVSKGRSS
Procedure: (§1)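 A pool of 90-nt single-stranded DNAs with seven random bases just before the constant AC of the nick site (name = the seven bases) was cut by 3 µM recombinant His6-SUMO-tagged Rep nickase domain (300 nM DNA, 50 mM HEPES pH 8.0, 50 mM NaCl, 1 mM MnCl2, 1 h, 37 °C, three replicates). Uncut DNA was amplified and sequenced.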

Row | Sequence | uncleaved DNA left (log2)
1 | TTCTGAG | 0.128
2 | ACTTGTT | -3.1
3 | TGGAGCC | -0.0722
4 | ATGCACA | -0.0333
5 | CGCTTTA | -0.00496
6 | CTAGGAA | 0.0461
7 | CGTGGTA | 0.0887
8 | CCGAGGG | -0.081
9 | GAGAAAC | 0.00707
10 | AACGGGC | 0.0224
11 | GCGAAGT | 0.0115
12 | CTCGCGG | -0.112
13 | TCGTCTC | -0.161
14 | ATTTTTA | -0.321
15 | TTGGCTC | -0.194
16 | CATAAGT | -0.0311
17 | CATGGGG | 0.00927
18 | AATTACG | 0.0131
19 | CACTATG | 0.0659
20 | AGACGAG | 0.0279

Row | Sequence | uncleaved DNA left (log2)
21 | TTTCGAA | 0.0793
22 | CGCGTTA | -0.0106
23 | CCGTGAG | 0.141
24 | GTCTTCT | -0.0845
25 | GTCGGCA | 0.122
26 | ACCGCTT | -0.162
27 | CCGGGGT | -0.0284
28 | CGCCGGG | 0.0534
29 | TGCTCCT | -0.397
30 | ACGGCAA | 0.127
31 | TCTACAC | 0.0684
32 | TGCTCTA | -0.046
33 | TCCCAAC | -0.0285
34 | TTCAGCT | -0.0826
35 | CCCAAAT | -0.0558
36 | CACCCGG | 0.0394
37 | CTTGGGC | 0.045
38 | ACGTGCA | -0.0709
39 | TAGGCTC | 0.0616
40 | TTACCTT | -0.0634

The sequences below were run on T2, Rep nickase domain of banana bunchy top virus in the same assay as above.
T2 sequence (Rep 1-94, printed without the tag): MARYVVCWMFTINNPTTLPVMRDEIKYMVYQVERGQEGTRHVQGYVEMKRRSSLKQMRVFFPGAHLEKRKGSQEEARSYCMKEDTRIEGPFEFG
Procedure: as §1

Row | Sequence | uncleaved DNA left (log2)
41 | TTCTGAG | 0.167
42 | ACTTGTT | -1.34
43 | TGGAGCC | -0.0393
44 | ATGCACA | -0.0217
45 | CGCTTTA | -0.00636
46 | CTAGGAA | 0.0853
47 | CGTGGTA | 0.0541
48 | CCGAGGG | -0.0589
49 | GAGAAAC | 0.0821
50 | AACGGGC | 0.0347
51 | GCGAAGT | -0.0081
52 | CTCGCGG | -0.0928
53 | TCGTCTC | -0.151
54 | ATTTTTA | -0.277
55 | TTGGCTC | -0.177
56 | CATAAGT | -0.122
57 | CATGGGG | -0.0412
58 | AATTACG | -0.045
59 | CACTATG | 0.121
60 | AGACGAG | 0.0847

Row | Sequence | uncleaved DNA left (log2)
61 | TTTCGAA | -0.0672
62 | CGCGTTA | -0.0509
63 | CCGTGAG | -0.129
64 | GTCTTCT | 0.0784
65 | GTCGGCA | 0.102
66 | ACCGCTT | -0.14
67 | CCGGGGT | -0.0359
68 | CGCCGGG | -0.0129
69 | TGCTCCT | -0.218
70 | ACGGCAA | 0.141
71 | TCTACAC | 0.0575
72 | TGCTCTA | -0.0586
73 | TCCCAAC | 0.0377
74 | TTCAGCT | -0.119
75 | CCCAAAT | 0.018
76 | CACCCGG | 0.0358
77 | CTTGGGC | 0.103
78 | ACGTGCA | 0.0923
79 | TAGGCTC | 0.106
80 | TTACCTT | -0.0539

The sequences below were run on T3, Rep nickase domain of cabbage leaf curl virus in the same assay as above.
T3 sequence (Rep 1-116, printed without the tag): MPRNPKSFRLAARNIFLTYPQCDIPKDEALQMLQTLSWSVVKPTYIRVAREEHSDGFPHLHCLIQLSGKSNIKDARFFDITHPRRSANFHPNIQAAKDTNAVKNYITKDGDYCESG
Procedure: as §1

Row | Sequence | uncleaved DNA left (log2)
81 | TTCTGAG | 0.124
82 | ACTTGTT | -0.744
83 | TGGAGCC | 0.122
84 | ATGCACA | -0.266
85 | CGCTTTA | -0.118
86 | CTAGGAA | 0.394
87 | CGTGGTA | 0.156
88 | CCGAGGG | 0.152
89 | GAGAAAC | 0.335
90 | AACGGGC | 0.431
91 | GCGAAGT | 0.147
92 | CTCGCGG | 0.429
93 | TCGTCTC | 0.0427
94 | ATTTTTA | -0.222
95 | TTGGCTC | 0.0778
96 | CATAAGT | -0.364
97 | CATGGGG | -0.443
98 | AATTACG | -0.771
99 | CACTATG | -0.391
100 | AGACGAG | 0.0936

Row | Sequence | uncleaved DNA left (log2)
101 | TTTCGAA | -0.045
102 | CGCGTTA | -0.377
103 | CCGTGAG | -0.551
104 | GTCTTCT | 0.385
105 | GTCGGCA | 0.382
106 | ACCGCTT | -0.407
107 | CCGGGGT | 0.635
108 | CGCCGGG | 0.503
109 | TGCTCCT | 0.0235
110 | ACGGCAA | 0.0304
111 | TCTACAC | 0.0964
112 | TGCTCTA | -0.0578
113 | TCCCAAC | -0.00311
114 | TTCAGCT | -0.364
115 | CCCAAAT | -0.0649
116 | CACCCGG | 0.394
117 | CTTGGGC | -0.249
118 | ACGTGCA | -0.632
119 | TAGGCTC | 0.184
120 | TTACCTT | -0.338
